Test results taken from a collection of fitness landscapes (doi:10.1126/science.1257360).
The other results are listed elsewhere or left out.

B1: PhoQ; a variant is named by its letters at X, in order, P23837 (parent)
chain: MKKLLRLFFPLSLRVRFLLATAAVVLVLSLAYGMVALIGYSVSFDKTTFRLLRGESNLFYTLAKWENNKLHVELPENIDKQSPTMTLIYDENGQLLWAQRDVPWLMKMIQPDWLKSNGFHEIEADVNDTSLLLSGDHSIQQQLQEVREDDDDAEMTHSVAVNVYPATSRMPKLTIVVVDTIPVELKSSYMVWSWFIYVLSANLLLVIPLLWVAAWWSLRPIEALAKEVRELEEHNRELLNPATTRELTSLVRNLNRLLKSERERYDKYRTTLTDLTHSLKTPLXXLQXXLRSLRSEKMSVSDAEPVMLEQISRISQQIGYYLHRASMRGGTLLSRELHPVAPLLDNLTSALNKVYQRKGVNISLDISPEISFVGEQNDFVEVMGNVLDNACKYCLEFVEISARQTDEHLYIVVEDDGPGIPLSKREVIFDRGQRVDTLRPGQGVGLAVAREITEQYEGKIVAGESMLGGARMEVIFGRQHSAPKDE

Variants of: B1
Assay: enrichment ratio after two sorts for PhoP signalling (ratio (wild type AVST 3.29)); higher = more functional
Conditions: with PhoP (E. coli)

GLIR and WHTY cannot be ordered by enrichment ratio: at most 0.25 for the first, at most 0.25 for the second.

First: KAYQ
Second: SSMM
The enrichment ratio of the first is lower: at most 0.25 for the first, 19.1 for the second.

HPYT and LHPQ cannot be ordered by enrichment ratio: at most 0.25 for the first, at most 0.25 for the second.

HFGF and DILE cannot be ordered by enrichment ratio: at most 0.25 for the first, at most 0.25 for the second.

FRRV and SNWV cannot be ordered by enrichment ratio: at most 0.25 for the first, at most 0.25 for the second.

NSDS and AKSN cannot be ordered by enrichment ratio: at most 0.25 for the first, at most 0.25 for the second.

RHKC and QIYA cannot be ordered by enrichment ratio: at most 0.25 for the first, at most 0.25 for the second.

RTCP and LFWN cannot be ordered by enrichment ratio: at most 0.25 for the first, at most 0.25 for the second.

RCHM and YDRL cannot be ordered by enrichment ratio: at most 0.25 for the first, at most 0.25 for the second.

DSQY and KIKA cannot be ordered by enrichment ratio: at most 0.25 for the first, at most 0.25 for the second.

GSAQ and LFEL cannot be ordered by enrichment ratio: at most 0.25 for the first, at most 0.25 for the second.

VQIL and DKRN cannot be ordered by enrichment ratio: at most 0.25 for the first, at most 0.25 for the second.

TIAW and DWRI cannot be ordered by enrichment ratio: at most 0.25 for the first, at most 0.25 for the second.

DGIQ and KCQR cannot be ordered by enrichment ratio: at most 0.25 for the first, at most 0.25 for the second.

KKTL and LRYW cannot be ordered by enrichment ratio: at most 0.25 for the first, at most 0.25 for the second.

QVHP and DMSP cannot be ordered by enrichment ratio: at most 0.25 for the first, at most 0.25 for the second.

GTWK and RDTR cannot be ordered by enrichment ratio: at most 0.25 for the first, at most 0.25 for the second.

EPPK and RIQC cannot be ordered by enrichment ratio: at most 0.25 for the first, at most 0.25 for the second.

YQIM and RWNK cannot be ordered by enrichment ratio: at most 0.25 for the first, at most 0.25 for the second.

AINP and FKAC cannot be ordered by enrichment ratio: at most 0.25 for the first, at most 0.25 for the second.

HQDT and DWMS cannot be ordered by enrichment ratio: at most 0.25 for the first, at most 0.25 for the second.

VLVE and DKHR cannot be ordered by enrichment ratio: at most 0.25 for the first, at most 0.25 for the second.

NERH and FSPS cannot be ordered by enrichment ratio: at most 0.25 for the first, at most 0.25 for the second.

EAMH and PTKC cannot be ordered by enrichment ratio: at most 0.25 for the first, at most 0.25 for the second.

SDHT and PDYV cannot be ordered by enrichment ratio: at most 0.25 for the first, at most 0.25 for the second.

HNGV and VASW cannot be ordered by enrichment ratio: at most 0.25 for the first, at most 0.25 for the second.

TTVW and LGAF cannot be ordered by enrichment ratio: at most 0.25 for the first, at most 0.25 for the second.

YMYF and HWPW cannot be ordered by enrichment ratio: at most 0.25 for the first, at most 0.25 for the second.

Going from SLLE to DPDC, the enrichment ratio falls from 2.52 to at most 0.25.

DKVD and PKDV cannot be ordered by enrichment ratio: at most 0.25 for the first, at most 0.25 for the second.

YQWV and KFYS cannot be ordered by enrichment ratio: at most 0.25 for the first, at most 0.25 for the second.

ASEQ and SCFF cannot be ordered by enrichment ratio: at most 0.25 for the first, at most 0.25 for the second.

RTRP and VKVL cannot be ordered by enrichment ratio: at most 0.25 for the first, at most 0.25 for the second.

IMCS and IQAV cannot be ordered by enrichment ratio: at most 0.25 for the first, at most 0.25 for the second.

VFAS and EVVP cannot be ordered by enrichment ratio: at most 0.25 for the first, at most 0.25 for the second.

IYEI and FIHL cannot be ordered by enrichment ratio: at most 0.25 for the first, at most 0.25 for the second.

NQDH and EFHH cannot be ordered by enrichment ratio: at most 0.25 for the first, at most 0.25 for the second.

Compared with TSME, HAMY is lower in enrichment ratio: 7.32 for the first, at most 0.25 for the second.

DMAA and IRYM cannot be ordered by enrichment ratio: at most 0.25 for the first, at most 0.25 for the second.

SCKK and TNRK cannot be ordered by enrichment ratio: at most 0.25 for the first, at most 0.25 for the second.

QMSK and MDDT cannot be ordered by enrichment ratio: at most 0.25 for the first, at most 0.25 for the second.

TWIL and RAEG cannot be ordered by enrichment ratio: at most 0.25 for the first, at most 0.25 for the second.

TLIE and DHDF cannot be ordered by enrichment ratio: at most 0.25 for the first, at most 0.25 for the second.

VDQN and WKGL cannot be ordered by enrichment ratio: at most 0.25 for the first, at most 0.25 for the second.

QSVR and FDPR cannot be ordered by enrichment ratio: at most 0.25 for the first, at most 0.25 for the second.

QDAP and WYPW cannot be ordered by enrichment ratio: at most 0.25 for the first, at most 0.25 for the second.

HNWG and DETY cannot be ordered by enrichment ratio: at most 0.25 for the first, at most 0.25 for the second.

GNPN and PLYH cannot be ordered by enrichment ratio: at most 0.25 for the first, at most 0.25 for the second.

IHYF and HMNK cannot be ordered by enrichment ratio: at most 0.25 for the first, at most 0.25 for the second.

MSRF and NNWF cannot be ordered by enrichment ratio: at most 0.25 for the first, at most 0.25 for the second.

ADYH and TKHC cannot be ordered by enrichment ratio: at most 0.25 for the first, at most 0.25 for the second.

MRKY and EMTW cannot be ordered by enrichment ratio: at most 0.25 for the first, at most 0.25 for the second.

VYGH and DGAG cannot be ordered by enrichment ratio: at most 0.25 for the first, at most 0.25 for the second.

MGNV and THNV cannot be ordered by enrichment ratio: at most 0.25 for the first, at most 0.25 for the second.

First: YGIM
Second: FYPR
The enrichment ratio of the first is higher: 0.277 for the first, at most 0.25 for the second.

RRAT and VYMF cannot be ordered by enrichment ratio: at most 0.25 for the first, at most 0.25 for the second.

RTTA and FRKN cannot be ordered by enrichment ratio: at most 0.25 for the first, at most 0.25 for the second.

AWDG and RSIC cannot be ordered by enrichment ratio: at most 0.25 for the first, at most 0.25 for the second.

RRQH and GNIH cannot be ordered by enrichment ratio: at most 0.25 for the first, at most 0.25 for the second.

ILFS and VLGL cannot be ordered by enrichment ratio: at most 0.25 for the first, at most 0.25 for the second.

PHID and LPML cannot be ordered by enrichment ratio: at most 0.25 for the first, at most 0.25 for the second.

DHIP and PEAG cannot be ordered by enrichment ratio: at most 0.25 for the first, at most 0.25 for the second.

Compared with WMRH, TKVL is higher in enrichment ratio: at most 0.25 for the first, 8.9 for the second.

FYSY and KLCN cannot be ordered by enrichment ratio: at most 0.25 for the first, at most 0.25 for the second.

ANPD and PHWS cannot be ordered by enrichment ratio: at most 0.25 for the first, at most 0.25 for the second.

PVRK and QLRC cannot be ordered by enrichment ratio: at most 0.25 for the first, at most 0.25 for the second.

WLRW and QAND cannot be ordered by enrichment ratio: at most 0.25 for the first, at most 0.25 for the second.

Compared with SWAY, TGWV is higher in enrichment ratio: at most 0.25 for the first, 4.33 for the second.

NHCR and VETD cannot be ordered by enrichment ratio: at most 0.25 for the first, at most 0.25 for the second.

HCHR and VGVN cannot be ordered by enrichment ratio: at most 0.25 for the first, at most 0.25 for the second.

DSEM and ESLF cannot be ordered by enrichment ratio: at most 0.25 for the first, at most 0.25 for the second.

MHRV and DENP cannot be ordered by enrichment ratio: at most 0.25 for the first, at most 0.25 for the second.

KATN and LFET cannot be ordered by enrichment ratio: at most 0.25 for the first, at most 0.25 for the second.

VFIH and DRDT cannot be ordered by enrichment ratio: at most 0.25 for the first, at most 0.25 for the second.

Compared with YYAD, GGSV is higher in enrichment ratio: at most 0.25 for the first, 23.9 for the second.

VKQI and DNFR cannot be ordered by enrichment ratio: at most 0.25 for the first, at most 0.25 for the second.

Going from LKDM to GSVL, the enrichment ratio rises from at most 0.25 to 7.99.

PCAM and ITQQ cannot be ordered by enrichment ratio: at most 0.25 for the first, at most 0.25 for the second.

WSTN and EQFG cannot be ordered by enrichment ratio: at most 0.25 for the first, at most 0.25 for the second.

VWGN and LMVK cannot be ordered by enrichment ratio: at most 0.25 for the first, at most 0.25 for the second.

GGKF and DVAD cannot be ordered by enrichment ratio: at most 0.25 for the first, at most 0.25 for the second.

VTKC and QRHR cannot be ordered by enrichment ratio: at most 0.25 for the first, at most 0.25 for the second.

QFYR and ELNS cannot be ordered by enrichment ratio: at most 0.25 for the first, at most 0.25 for the second.

RTES and LFMI cannot be ordered by enrichment ratio: at most 0.25 for the first, at most 0.25 for the second.

REDM and DNCS cannot be ordered by enrichment ratio: at most 0.25 for the first, at most 0.25 for the second.

Compared with PNDN, QSWL is higher in enrichment ratio: at most 0.25 for the first, 11.6 for the second.

ASRG and EITQ cannot be ordered by enrichment ratio: at most 0.25 for the first, at most 0.25 for the second.

YIVC and WDDF cannot be ordered by enrichment ratio: at most 0.25 for the first, at most 0.25 for the second.

TFPT and WRRK cannot be ordered by enrichment ratio: at most 0.25 for the first, at most 0.25 for the second.

GDNM and WFVA cannot be ordered by enrichment ratio: at most 0.25 for the first, at most 0.25 for the second.

LKTP and VFAY cannot be ordered by enrichment ratio: at most 0.25 for the first, at most 0.25 for the second.

First: SNYF
Second: VHEP
The enrichment ratio of the first is lower: at most 0.25 for the first, 2.38 for the second.

PQWW and NVKI cannot be ordered by enrichment ratio: at most 0.25 for the first, at most 0.25 for the second.

EKYP and RWTE cannot be ordered by enrichment ratio: at most 0.25 for the first, at most 0.25 for the second.

IPCV and RRGG cannot be ordered by enrichment ratio: at most 0.25 for the first, at most 0.25 for the second.

VQNY and NHQS cannot be ordered by enrichment ratio: at most 0.25 for the first, at most 0.25 for the second.

DNAR and TRNQ cannot be ordered by enrichment ratio: at most 0.25 for the first, at most 0.25 for the second.

For FAFT, the enrichment ratio was at most 0.25.
